Measured values from the RNAGym collection of RNA variant scans (doi:10.1093/nar/gkz1192).
Read counts are not given, so values of variants with three or more changes are uncertain.

B1: CPEB3 Ribozyme (parent)
chain: UAACAGGGGGCCACAGCAGAAGCGUUCACGUCGCAGCCCCUGUCAGAUUCUGGUGAAUCUGCGAAUUCUGCUGUAUAUCUC

Variants of: B1
Experiment: self-cleavage, relative activity (ratio to wild type); higher = more cleavage; in vitro, sequencing
Procedure, shortened: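 CPEB3 self-cleaving ribozyme mutant libraries were made by rounds of error-prone PCR, barcoded, and transcribed in vitro with T7 RNA polymerase for 5 hours at 37°C. Cleavage occurred during transcription and a 15 min DNase I step before EDTA stop. RNAs were reverse transcribed with template switching and Illumina-sequenced, with DNA sequencing mapping barcodes to variants. Relative activity is the variant's cleaved/total read fraction divided by wild type's (minimum 5 reads), averaged across three batches.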

Variant | self-cleavage
UAGCAGCGGGCCACAGCAGAAGCGUUCACGUCGCAGCCCCUGUCAGAUUCUGGUGAAUCUGCGAAUUCUGCAGUAUAUCCC [A3G G7C U72A U80C] | 0.81
UAGCAGCGGGCCGCAGCAGAAGCGUUCACGUCGCAGCCCCUGACAGAUUCUGGUGAACCUGCGAAUUCUGCUGUAUAUCUC [A3G G7C A13G U43A U58C] | 0.08
UAGCAGAGGGCCACAGCAGAGGCGUUCACGUCGCAGCCCCUGUCAGAUUCUGGUGAAUCCGCGAAUUCUGCUGUAUAUCUC [A3G G7A A21G U60C] | 0.09
UAGCAGAGGGCCACAGCAGAAGCGUUCACGUCGCAGCCCCUGUCAGACUCCGGUGAAUCUGCGAAUUCUGCUGUAUAUCUC [A3G G7A U48C U51C] | 0.29
UAGCAUGGGGCCACAGCAGAGGCGUUCACGUUGCGGCCCCUGUCAGAUUCUGGUGAAUCUGCGAAUUCUGCUGUAUAUCCC [A3G G6U A21G C32U A35G U80C] | 0.11
UAGCAGGUGGCCACAGCAGAAGCGUUCACGUCGCAGCCCCUGUCAGAUUCUGGUGAAUCUGCGAAUUCUGCUGUUUAUCUC [A3G G8U A75U] | 0.43
UAGCAGGGAGCCACAGCAGAAGCGUUCAUGUCGCAGCCCCAGUCAGAUUCUGGUAAAUCUGCGAAUUCUGCUGUUUAUCUC [A3G G9A C29U U41A G55A A75U] | 0.05
UAGCAGGAGGCCACAGCAAAAGCGUUCACGUCGCAGCCCCUGUCAGAUUCUGGUGAAUCUGCGGAUUCUGCUGUGAAUCUC [A3G G8A G19A A64G A75G U76A] | 0.09
UAGCAGGGUGCCACAGCAGAAGCGUUCACGUCGCUGCCCCUGUCAGAUUCUGGUGAAUCUGCGAAUUCUGCUGUAUACCUC [A3G G9U A35U U78C] | 0.07
UAGCAUGGGGCCACAGCAGAAGCGCUCACGUCGCAGCCCCUGUCAGAUUCUGGUGAAUCUGCGAAUUCUGAUGUAUAUCUC [A3G G6U U25C C71A] | 0.32
UAGCAGGAGGCCACUGCAGAAGCGUUCACGCCGCUGCCCCUGUCAGAUUCUGGUGGAUCUGCGAAUUCUGCUGUAUAUCUC [A3G G8A A15U U31C A35U A56G] | 0.03
UAGCAGUGGGCCACGGCAGAAGCGUCCACGUCGCAGCCCCUGUCCGAUUCUCGUGGAUCUGCGAAUUCUGCUGUAUAUCUC [A3G G7U A15G U26C A45C G52C A56G] | 0.33
UAGCAGGAGGCCUCAGCAGAAGCGUUCACGUCGCAGCCCCUGUCAGAUUCUGGUGAAUCUGCGAAAUCUGCUGUAUAUCAC [A3G G8A A13U U66A U80A] | 0.24
UAGCAGGAGGCCGCAGCGGAAGCGUUCACGUCGCAGCCCCUGUCAGAUUCUGGUGAAUCUGCGAAUUCUGCUGUAUAUCUC [A3G G8A A13G A18G] | 0.58
UAGCAGAGGGCCACAGCAGAGGCGUUCACGUCGCAGCCCCUGUCAGAUUCUGGUGAAUCUGCGAAUUCUGCUGUAUAUCUC [A3G G7A A21G] | 0.12
UAGCAGCGGGCCGCAGCAGAAGCGUCCACGUCGCAGCCCCUGUCAGAUUCUGGUGAAUCUGCGCAUUCUGCUGUAUAUCUC [A3G G7C A13G U26C A64C] | 0.1
UAGCAGAGGGCCACAGCAGAAGCGUUCACGUCGCAGCCCCUGUCAGAUUCUGGUGAAUCUGCGAAUUCUGUCGUAUAUCUC [A3G G7A C71U U72C] | 0.24

Variant | self-cleavage
UAGCAUGGGGCCUCAGCAGAAGCGUUCACGUCGCAGCCCCUGUCAGAUUCUGGUGAAUCUGCGAAUUCUGCUGUGUAUCCC [A3G G6U A13U A75G U80C] | 0.17
UAGCAGGUGGCCACAGCAGAAGCGUUCACGUCGCAGCCCCUGUCAGAUUCUAUUGAAUCUGCGAAUACUGCUGUAUAUCUC [A3G G8U G52A G53U U67A] | 0.1
UAGCAGGGAGCCACAGCAGAAGCGUUCACGUCGCAGCCCCUGUCAGAUUCUGGUGAGCCUGCGAAUUCUGCUGUAUAUCUC [A3G G9A A57G U58C] | 0.47
UAGCAGGGAGCCACAGCAGAGGCGUUCACGUCGCAGCCCCUGUCAGAUUCUGGUGAACCUGCGAAUUCAGCUGUAUGUCUC [A3G G9A A21G U58C U69A A77G] | 0.06
UAGCAGGAGGCCACAGCAGAAGCGUUCACGUCGCAGCCCCUGUCACAUUCUGGUUAAUCAGCGAAUUCUGCCGUAUAUCUC [A3G G8A G46C G55U U60A U72C] | 0.38
UAGCAGUGGGCCACAGCAGAAGCGUUCGCGUCGCGGCCCCUGACAGAUUCUAGUGAAUCUGCGAAUUCUGCUGUAUAUCCC [A3G G7U A28G A35G U43A G52A U80C] | 0.08
UAGCAGGGAGCCACGGCAGAGGCGUUCACGUCGCAGCCCCUGUCAGAUUCUGGUGAAUCUGCGAAUUCUGCAGUAUAUCUC [A3G G9A A15G A21G U72A] | 0.1
UAGCAGGAGGCCACAGCAGAAGCGUUCACGUCGCAGCCCCUGUCGGAUUCUGGUGAAUCUGCGAAUUCUGCUGUAUAUCUC [A3G G8A A45G] | 0.09
UAGCAGGGUGCCACAGCAGAAGCGUUCUCGUCGCAGCCCCUGUCAGAUUCUGGUGAGUCUGCGGAUUCUGCUGUAUAUCUC [A3G G9U A28U A57G A64G] | 0.27
UAGCAGAGGGCCACAGCAGUAUCGUUCACGUCGCAGCCACUGUCAGAUUCUGGUGAAUCUGCGGAUUCUGCUGUAUUUCUC [A3G G7A A20U G22U C39A A64G A77U] | 0.05
UAGCAGCGGGCCACAGCGGAAGCGUUCACGUCGCAGCCCCUGUCAGAUUCUGGUGAAUCUGCGAAUUCUGCUGUAUGUCUC [A3G G7C A18G A77G] | 0.74
UAGCAGAGGGCCACGGUAGAGGCGUUCACGUCGCAGCCUCUGUCAGAUUCUGGUGAGUCUGCGAAUUCUGCUGUAUAUCUC [A3G G7A A15G C17U A21G C39U A57G] | 0.05
UAGCAGAGGGCCACUGCAGAAGCGUUCACGUCGCAGCCCCUGUCAGACUCUGGUGAAUCUGCGAAUUCUGCUGUAUAUCUC [A3G G7A A15U U48C] | 0.08
UAGCAGCGGGCCACAGCAGAGGCGUUCACGUCGCAGCCCCUGUCAGAUUCAGGUGAAUCUGCGAAUUCUGCUGUAUAUCUC [A3G G7C A21G U51A] | 0.09
UAGCAGAGGGCCACAUCAGAAGCGUUCACGUCGCUGCCCCUGUCAGAUUCUGGUGAAUCUGUGGAUUCUGCAGUAUAUCUC [A3G G7A G16U A35U C62U A64G U72A] | 0.09
UAGCAGGAGGCCACAGCAGAAGCGUUCACGUCGCGGGCCCUGUCGGAUUCUGGUGAAUCUGCGAAUUCUGCCGUAUAUCUC [A3G G8A A35G C37G A45G U72C] | 0.07
UAGCAGGGAGUCACAGCAGAAGCGUGCACGCCGCAGCCCUUGUCAGAUUCUGGUGAAUCUGCGAAUUCUGCUGGAUAUCUC [A3G G9A C11U U26G U31C C40U U74G] | 0.04
